Measured values taken from ChEMBL document CHEMBL4888484, “Replenishing the malaria drug discovery pipeline: Screening and hit evaluation of the MMV Hit Generation Library 1 (HGL1) against asexual blood stage Plasmodium falciparum ,using a nano luciferase reporter read-out” (2022).
Screen size: about 150,000 compounds; about 540 (0.36%) showed an effect of 50% or more. Some of the results follow.

test system: Plasmodium falciparum; assay: Primary screen in NF54 nanoGlo assay, in single point, at 2uM, 72h; a lower Z score goes with more inhibition; type: functional, Erythrocyte; conditions: timepoint 72 hour

SMILES | % Inhibition [%] | Z score
N#Cc1ccc(OC[C@@H](O)Cn2cc(CNC3CCCC3)nn2)cc1 | -17 | 2.02
COc1ccc(CN2CCNC(=O)[C@@H]2CC(=O)NCc2cc(C(C)(C)C)[nH]n2)c(C)c1C | -14 | 2.14
CC1(C)CC(Cc2noc(C3(S(C)(=O)=O)CCCC3)n2)C1 | 0 | -0.08
CCc1csc(NCc2[nH]nc(C)c2C)n1 | -4 | 0.56
O=C(c1onc2c1CCCC2)N1CCO[C@@H](CO)C1 | -3 | 0.54
O=C(c1cc2ccccc2c(=O)[nH]1)N1CCC[C@H](C(F)(F)F)C1 | -24 | 2.76
O=C1\N=C(c2ccc(Cl)cc2)/N=N\C(c2ccc(Cl)cc2)=N/[C@]1(O)C(F)(F)F | 35 | -4.53
CC(C)(O)Cc1ccc(N)cc1-c1ccc2nonc2c1 | 8 | -0.95
O=C1CC(C2CCCO2)C(=O)N1c1ccccc1 (stereo not given) | 2 | -0.23
CC(C)Oc1cccc(F)c1-c1cnc2nn[nH]c2c1 | 9 | -1.2
CN(C(=O)N1CCC(c2c(F)cccc2F)CC1)[C@H]1CCS(=O)(=O)C1 | -15 | 1.3
Cc1cnc(CNC[C@H](O)c2ccccn2)nc1 | -9 | 1.09
CC(C)c1csc(CCNC(=O)N2CCCC[C@@H]2CN)n1 | -4 | 0.79
O=C(c1ccco1)N1CC(C(=O)N2CCCC2)C(c2ccc(F)cc2)C1 (stereo not given) | -8 | 0.92
CC(C)(C)c1cnc(CN[C@H](C(N)=O)C(C)(C)C)o1 | -9 | 0.79
COc1cc(-c2nc(Cn3cnc(C(C)=O)n3)c(C)o2)cc2c1OCO2 | -8 | 1.04
Cc1cc(C)n(-c2ccc(CN(C)[C@H]3CCS(=O)(=O)C3)cc2)n1 | 31 | -3.19
CCNc1cc(CNC(=O)Nc2c(C)nn(C)c2C)ccn1 | -11 | 2.12
Cc1nccn1-c1ncc(NC(=O)Nc2ccc3c(c2)OCO3)cn1 | 25 | -4.77
CC(C1Cc2ccccc2O1)N(C)Cc1nccn1S(=O)(=O)N(C)C (stereo not given) | 34 | -4.61
COc1cccc(NC(=O)C23CCCN2CCC3)c1 | -8 | 1.16
COc1ccc(CONS(=O)(=O)c2ccc(NC(C)=O)cc2)cc1Cl | -15 | 1.99
CCN(CC)c1ccc(C(=O)Nc2ccc3nc(N4CCCC4)cc(C)c3c2)cc1 | 73 | -6.69
Cc1ccccc1C(=O)N1CCCc2cnc(N3CCOCC3)nc21 | -2 | 0.21
CCn1cnnc1CCNc1ccc2cc[nH]c2n1 | -13 | 2.34
CC(C)CCNC(=O)Nc1ccc(N2CCc3sccc3C2)cc1 | 11 | -2.01
Cc1ccc2c(c1F)N(C(=O)c1cnc3sc(C)c(C)n3c1=O)CCC2 | -4 | 0.38
CCOC(=O)NCCc1ccc(O)cc1 | -5 | 0.56

SMILES | % Inhibition [%] | Z score
C#Cc1cncc(C(=O)Nc2ccc(N3C(=O)c4ccccc4C3=O)c(Cl)c2)c1 | 8 | -1
Cc1noc(-c2ccc(S(=O)(=O)NCc3ccccn3)o2)c1C | -7 | 1.34
CC(C)c1noc(N2CC[C@H](c3nccn3C)C2)n1 | 30 | -3.38
CN1CCN(Cc2ccc(C(=O)NC3(c4cc(F)ccc4F)CC3)o2)CC1 | -10 | 1.68
O=C(NCc1ccncn1)c1ccc(F)c(O)c1 | 1 | -0.08
O=C(NCc1ccccc1Cl)c1n[nH]c2c1CCc1ccccc1-2 | 6 | -0.57
C[C@@H](C1CC1)N(C(=O)c1n[nH]c2ccccc2c1=O)C1CC1 | 1 | -0.08
CCOc1ccccc1C(=O)NC[C@]1(O)CCc2ccccc2C1 | -20 | 2.57
CC(C)N[C@H]1COCC[C@@H]1Oc1ccc(CO)cc1 | 6 | -1.04
C[C@@H](Cc1ccsc1)N(C)C(=O)Nc1ccc2cc[nH]c2c1 | -5 | 0.63
Cc1nn(C)c(C)c1CCC(=O)N(C)CCc1noc(C2CC2)n1 | -4 | 0.69
Cn1nccc1CCn1cc(C#N)cn1 | -15 | 1.23
Cc1nccn1[C@@H](C)Cc1nc(C2CC2)nn1Cc1c(F)cccc1Cl | -7 | 1.09
CCN=C(NCC)NCc1cccc(C)c1 | -1 | 0.09
O=C(c1ccc(-n2c(-c3ccccc3)cc3c2CCCCC3)cc1)N1CCCCCC1 | 14 | -2.63
Cc1cccc(CN2CCC[C@@]3(CCN(C(=O)c4ccnn4C)C3)C2)c1 | -5 | 0.9
COc1cc([C@@H](NC(=O)c2ccc(-n3cnnn3)cc2)C(=O)Nc2c(C)cccc2C)ccc1O | -14 | 1.87
O=C(NCc1ccnc(-c2ccsc2)c1)Nc1cccs1 | 2 | -0.22
c1ccc(-n2ncc(CN3CCC4(CC3)OCCO4)n2)cc1 | -8 | 1.04
N#Cc1cccc(-c2c[nH]c(CNC(=O)c3ccn(-c4cccc(F)c4)n3)n2)c1 | 10 | -1.4
CC(C)(C)C(=O)NOCc1ccccn1 | -11 | 1.67
CC1CN(c2ccccc2)CCN1C(=O)CC1(c2ccccc2)CC(=O)N(Cc2cccnc2)C1=O (stereo not given) | -3 | 0.33
CCc1nnc(CN(C)C(=O)CCn2cnc3ccccc3c2=O)o1 | -3 | 0.36
CCN1C(=O)c2cc(C(=O)NCc3cccc(Br)c3)nn2C[C@@]1(C)C(=O)NC1CCCC1 | 18 | -2.15
N#CC1(CC(=O)N2Cc3ccccc3-c3ccccc32)CC1 | -9 | 1.1
O=S(=O)(CCN1CCC[C@@H]1CO)c1ccccc1 | -14 | 2.01
CCc1nc(C)c(CNCc2cccc(CO)c2)[nH]1 | 0 | 0.01
